Source: the RNAGym collection of RNA variant scans (doi:10.7554/elife.90254)
Read counts are not given, so values of variants with three or more changes are uncertain.

B1: LINE1-mini (parent)
chain: GGCAGAGCUCAACACAGCGUGGCAAAGUGGCUGUGGCUAGACUGCC

Variants of: B1
Assay: self-cleavage, relative activity (ratio to wild type); higher = more cleavage; in vitro, sequencing; the parent is a self-cleaving ribozyme

Row | Variant | self-cleavage
1 | A11G C15U G33U A41U | 0
2 | A11G G27C G33A | 0.02
3 | A11U C42G U43C | 0.03
4 | A11U G19A G21A G22A C31A | 0.02
5 | A11U A14G A39U | 0.07
6 | A12C C13U U20G G33A G40U | 0.01
7 | A12C C15A G21U G22U G35U | 0.04
8 | A11U A16U U28C U32A G36A | 0.02
9 | A11G G19A C23U | 0.05
10 | A11G G33U U34A C37U | 0
11 | A11U A25U C42A | 0.02
12 | A11U C15A A26U | 0.04
13 | A11G A16U G21U | 0.03
14 | A11G A12U A16U U34G | 0
15 | A11U U20G G29U C31G | 0.01
16 | A12C U32C A39G C42A | 0.02
17 | A12G A25U U28A | 0.01
18 | A11U G29C C31G | 0.03
19 | A11G U20C U28G C37A | 0.01
20 | A12C A25U G29U G44C C46U | 0.03
21 | A12C C15U U20G A25U G40C | 0.01

Row | Variant | self-cleavage
22 | A11G G33U U38C | 0.01
23 | A12G A16C C42A | 0.08
24 | A11U C13G A25U A26C C42U | 0.03
25 | A11U C15G U43A C45U | 0.09
26 | A12C G17U C18U G35C U43A C46U | 0
27 | A11U C18U U28C U38C A39U G44A | 0.01
28 | A12C U28A G44U | 0.03
29 | A11G G21A C23U C37G | 0.02
30 | A12C G17U C45A | 0
31 | A11U C13U U28A G44U | 0.01
32 | A12C A24U A26U G36U | 0
33 | A12C C13G C15G C23A G27A U32G A39G | 0.01
34 | A11G A16U A25U | 0.03
35 | A12C U20G A24U U38G | 0
36 | A11U A12C A24U C31U C46G | 0.02
37 | A11G A25G U38A C46U | 0.01
38 | A11U C15U G29C A41G | 0.05
39 | A11G G19U G29C C45G | 0
40 | A12C A25G C31A U34A | 0
41 | A11G A12U C18G G33U | 0.01
42 | A11G G33U U43A | 0.02

Row | Variant | self-cleavage
43 | A11G G27A U28A G30A | 0.03
44 | A11U G19C G29C A41G | 0.01
45 | A11G C15G G30C G40A | 0.01
46 | A12C U20G C23A G29A G33U | 0
47 | A11U G17U G30A G36U | 0.01
48 | A11G G29C U34C C42U | 0
49 | A12C A24U A25G C37A C42A | 0
50 | A12C G27C G29U C31A C45A | 0
51 | A12C G36U A41G | 0
52 | A12C A14C C18G G33U U38A | 0.01
53 | A11U G19A A26U G27A G33C | 0.01
54 | A12C U20C A26G G44A | 0.01
55 | A11U C18G G33A G35C A39C | 0
56 | A12C G19A U20A U28G A41C C42G | 0
57 | A11G A26G G40C C45U | 0.02
58 | A11G A26C G30U G33U | 0.01
59 | A11G G21C G33C | 0.02
60 | A12C G17A U34G G44A | 0.03
61 | A11U C18U U20C G22A A25U G35C G36A | 0.01
62 | A11G U32A G35C C46G | 0.01
63 | A11G C31A U34G | 0.02

Row | Variant | self-cleavage
64 | A11U C18U C46G | 0.05
65 | A12C C37G C45G | 0.01
66 | A11U U32C C42G | 0.03
67 | A11U G33U U43A C46U | 0.02
68 | A12C C13U G19U | 0.01
69 | A12C U43A C46A | 0.01
70 | A11U A24G U28C C42A | 0
71 | A11G C15U U20G A25U G35A A39U | 0
72 | A12C U43A C45A | 0.02
73 | A12C U20C G33U G36U C46G | 0.01
74 | A12C G17U C42A | 0.04
75 | A11U U20C G30C G35C | 0.03
76 | A12C C15G A16G C42U | 0
77 | A11U C15A C23U | 0.04
78 | A11G C13A C18G C23U G29A A41C | 0.03
79 | A12G A16U U34A | 0.02
80 | A12C G27U A41G | 0.08
81 | A11U G17U U34G | 0.02
82 | A11U C13A G27C G29U | 0.02
83 | A12C G21U C37A | 0.04
84 | A12C U20C G27C U28C | 0
